Measurements as given in article PMC4336329 (PLoS ONE, 2015).
The whole screen tested about 310,000 compounds, of which about 2,200 (0.71%) showed an effect of 50% or more. Effects have a minus sign here. This is one part of the list.

Target: human ether-à-go-go-related gene (hERG) potassium channel (human, UniProt Q12809)
Assay: primary screen, population patch clamp on CHO cells stably expressing hERG

Chain of human ether-à-go-go-related gene (hERG) potassium channel (Q12809 whole entry, looked up): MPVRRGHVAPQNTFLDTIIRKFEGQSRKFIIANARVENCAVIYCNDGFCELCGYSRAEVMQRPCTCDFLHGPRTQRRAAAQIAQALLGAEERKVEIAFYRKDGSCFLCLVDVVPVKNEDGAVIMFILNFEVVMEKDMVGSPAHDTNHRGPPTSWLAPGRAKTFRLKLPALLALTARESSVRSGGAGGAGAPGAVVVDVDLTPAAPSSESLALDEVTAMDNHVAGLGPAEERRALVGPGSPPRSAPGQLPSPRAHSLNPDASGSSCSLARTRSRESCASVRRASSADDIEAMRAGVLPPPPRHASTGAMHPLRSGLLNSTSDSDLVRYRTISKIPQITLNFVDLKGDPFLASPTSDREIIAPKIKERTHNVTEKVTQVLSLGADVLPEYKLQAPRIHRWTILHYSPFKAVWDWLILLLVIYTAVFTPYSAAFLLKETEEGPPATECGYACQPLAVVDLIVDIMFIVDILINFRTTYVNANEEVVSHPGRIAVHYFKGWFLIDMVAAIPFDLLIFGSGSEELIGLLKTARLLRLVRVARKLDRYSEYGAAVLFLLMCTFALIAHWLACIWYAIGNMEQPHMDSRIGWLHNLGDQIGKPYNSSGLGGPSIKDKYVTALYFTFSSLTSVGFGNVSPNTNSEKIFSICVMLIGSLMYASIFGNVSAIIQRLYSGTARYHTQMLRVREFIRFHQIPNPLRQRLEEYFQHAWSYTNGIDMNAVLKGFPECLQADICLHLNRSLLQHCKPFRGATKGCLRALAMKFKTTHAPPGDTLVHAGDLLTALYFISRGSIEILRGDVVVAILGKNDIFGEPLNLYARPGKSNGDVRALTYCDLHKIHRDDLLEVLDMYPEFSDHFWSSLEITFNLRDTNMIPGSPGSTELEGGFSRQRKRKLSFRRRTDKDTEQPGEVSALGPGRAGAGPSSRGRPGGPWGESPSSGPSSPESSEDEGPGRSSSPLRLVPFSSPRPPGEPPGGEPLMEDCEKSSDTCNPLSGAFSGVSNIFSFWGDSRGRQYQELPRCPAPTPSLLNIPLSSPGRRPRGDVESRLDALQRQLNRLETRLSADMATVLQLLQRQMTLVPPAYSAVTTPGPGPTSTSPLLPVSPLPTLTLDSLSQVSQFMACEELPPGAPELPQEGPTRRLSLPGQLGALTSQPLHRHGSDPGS

Row | SMILES | hERG current change (%, negative = inhibition) at 1uM
1 | N#Cc1cccc(NC(=O)COc2ccc(-n3ccnc3)cc2)c1 | -51%
2 | CN1CCCN(C(=O)c2cc(-c3ccc(Cl)c(Cl)c3Cl)nc3ccccc23)CC1.Cl | -18.7%
3 | O=C(O)Cc1csc(-c2cccc(F)c2)n1 | 15%
4 | COc1ccc(NC(=O)CN2c3cccc4cccc(c34)S2(=O)=O)c(OC)c1 | 5.94%
5 | Cn1ncc2c(Nc3ccc(Cl)c(Cl)c3)ncnc21 | 17.5%
6 | COc1ccc(C(=O)NC(C)c2nnc(SCC(=O)NC3CCCCC3)n2C)cc1 (stereo not drawn) | 8.96%
7 | O=C(NCCCNCCCNC(=O)c1ccc(/C=N/O)nc1)c1ccc(/C=N/O)nc1 | 7.88%
8 | COc1ccc(C(=O)NNC(=O)CSc2nnc(C3CC3)n2C)cc1 | 14.5%
9 | CC(C)(C)c1nnc(NC(=O)CS(=O)(=O)Cc2ccccc2)s1 | 14.3%
10 | COc1ccccc1N1CCN(C(=O)CCN2C(=O)c3cccc4cccc(c34)C2=O)CC1 | 9.15%
11 | CCOC(=O)c1c(NC(=O)c2ccc(S(=O)(=O)N3CCOCC3)cc2)sc2c1CC(C)(C)NC2(C)C | 11.9%
12 | COc1ccc(NC(=O)CSCC(=O)OCc2cccc(OC)c2OC)cc1 | 11.6%
13 | CCCNC(=O)c1ccccc1NC(=O)C1COc2ccccc2O1 (stereo not drawn) | 7.41%
14 | COc1ccc(/C=C/C(=O)NCC(=O)n2nc(C)cc2C)cc1 | 11.2%
15 | Cc1ccccc1SCCNC(=O)CCc1ccccc1 | 12%
16 | CCc1ccc(C(=O)NNc2ccc(F)cc2)cc1 | 9.38%
17 | COC(=O)c1nn(-c2cccc(C(F)(F)F)c2)c(=O)cc1Sc1ccccn1 | 0.0534%
18 | Cc1ccc(C(=O)Nc2cccc([N+](=O)[O-])c2)cc1S(=O)(=O)Nc1cccc(C(=O)O)c1 | 12.8%
19 | CCOC(=O)Cc1csc(NC(=O)NC2(C(F)(F)F)Oc3cc(Cl)c(Cl)cc3O2)n1 | 8.86%
20 | Cc1cccc(C)c1NC(=O)Nc1ccccc1-n1ccnc1 | 4.23%
21 | O=S(=O)(/N=C(/Nc1ccccc1)c1ccccc1)c1cccs1 | 7.25%
22 | N#C/C(=N/Nc1ccccc1[N+](=O)[O-])C(N)=S | 15%
23 | CCc1ccc(-c2cc(C)no2)cc1S(=O)(=O)Nc1ccccn1 | 15.5%
24 | Cc1nn2c(NCCCn3ccnc3)cc(C(C)C)nc2c1-c1ccccc1 | 8.47%
25 | Cn1c(SCC(=O)c2cccs2)nnc1-c1ccco1 | 15.2%
26 | CNc1c(NC(=O)C2CCC(C)CC2)c(=O)oc2ccccc12 (stereo not drawn) | 15.4%
27 | CCOc1cccc2sc(N(CCCN(C)C)C(=O)Cc3ccccc3)nc12.Cl | -83.7%

Row | SMILES | hERG current change (%, negative = inhibition) at 1uM
28 | O=C(Nc1ccc(S(=O)(=O)NCc2ccco2)cc1)c1cccc(F)c1 | 1.31%
29 | O=C(CN1C(=O)c2ccccc2C1=O)Nc1ccccc1C(=O)N1CCCC1 | 8.1%
30 | Cc1ccc(-c2nn3c(C)nnc3s2)cc1NC(=O)c1ccc(-c2ccc(Cl)cc2Cl)o1 | 1.09%
31 | CCOc1ccccc1NC(=O)c1ccc2ccccc2c1 | 14.2%
32 | CNC(=S)N1CC2CC(C1)c1cccc(=O)n1C2 (stereo not drawn) | 10.7%
33 | COc1ccc(CNC(=O)[C@H](C)NC(=O)C2CCN(S(=O)(=O)c3ccc(F)cc3)CC2)cc1 | 14.3%
34 | CCCC1S/C(=N/N=C/c2ccc(OC)cc2)N(Cc2ccccc2)C1=O (stereo not drawn) | 16.6%
35 | COCCn1c(=O)[nH]c2cc(C(=O)N3CCN(c4cccc(Cl)c4)CC3)ccc2c1=O | -7.95%
36 | CCN(CC)CCC(c1cc(OC)c(OC)c(OC)c1)c1c(OC)cc(OC)c2ccc(=O)oc12 (stereo not drawn) | -25.1%
37 | Cc1cn(-c2cc(C(=O)Nc3ccc(C)c(NC(=O)C(=O)c4c[nH]c5ccccc45)c3)cc(C(F)(F)F)c2)cn1 | 12.3%
38 | COc1ccc(C2=NN(C(=O)c3ccccc3)C(c3cccc([N+](=O)[O-])c3)C2)cc1 (stereo not drawn) | -1.01%
39 | O=C(NCCn1cccc1)c1cccc2ccccc12 | 8.35%
40 | CCOc1ccc(C2CC(c3ccc(CC)cc3)n3nc(N)nc3N2)cc1 (stereo not drawn) | 5.81%
41 | CCCc1c(C(=O)N/N=C/c2cccnc2)nnn1-c1nonc1N | 16.6%
42 | O=C(Nc1ccc(S(=O)(=O)N2CCc3ccccc32)cc1)c1ccco1 | 7.56%
43 | CC1CCCC(NC(=O)CSC2=Nc3ccccc3C3CC=NN23)C1C (stereo not drawn) | 6.04%
44 | COc1ccccc1C1CCCN1Cc1nc(-c2ccc(C)s2)oc1C (stereo not drawn) | 3.47%
45 | COc1ccc(CNC(=O)C2CCN(S(=O)(=O)N3CCCC3)CC2)c(OC)c1 | 7.25%
46 | CCn1c(C)c(Br)c(=O)c(C(=O)OC)c1-c1ccc(Cl)cc1 | 21%
47 | O=C(NCc1ccc2c(c1)OCO2)C1CCCN1C(=O)Nc1cccc(Cl)c1 (stereo not drawn) | -5.85%
48 | O=C(Cc1cccc(C(F)(F)F)c1)Nc1ccc(S(=O)(=O)N2CCCC2)cc1 | 13%
49 | COc1ccc(C(CNC(=O)COc2ccc(Cl)c(C)c2)N2CCCCC2)cc1 (stereo not drawn) | 10.4%
50 | COc1ccc(-c2cn3c(C)c(C(=O)N4CCCc5ccccc54)sc3n2)cc1 | 1.32%
51 | CN(CCC(=O)Nc1ccc2c(c1)OCO2)Cc1ccccc1.Cl | 5.45%
52 | COC(=O)C1(C)NC(c2cccs2)C2C(=O)N(c3ccccc3F)C(=O)C21 (stereo not drawn) | 1.21%
53 | COc1ccccc1C(OC(=O)c1cccs1)C(=O)NCc1ccco1 (stereo not drawn) | 10%
54 | Cc1cc(C)n(-c2nc3ccccc3nc2NCCc2ccccc2)n1 | 9.53%
